# The other results are listed elsewhere or left out. Sequences were assembled here from the parent chain. Values near 0.05 are background.
# B1: TEV protease; numbered along this chain (parent)
# chain: MGESLFKGPRDYNPISSSICHLTNESDGHTTSLYGIGFGPFIITNKHLFRRNNGTLVVQSLHGVFKVKDTTTLQQHLVDGRDMIIIRMPKDFPPFPQKLKFREPQREERICLVTTNFQTKSMSSMVSDTSCTFPSGDGIFWKHWIQTKDGQCGSPLVSTRDGFIVGIHSASNFTNTNNYFTSVPKNFMELLTNQEAQQWVSGWRLNADSVLWGGHKVFMVKPEEPFQPVKEATQL
# Variants of: B1
# Assay: raw area under fraction-flipped curve 0-4 h after induction (AUC4h, not background-subtracted), DNA-recorder readout of cleavage of the substrate (dimensionless); higher = more cleavage of the substrate by the protease variant
# Conditions: temperature: 34 °C; time window: 0-4 h after rhamnose induction
# Method: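 In vivo DNA recorder in E. coli TOP10(DE3) ΔrhaA at 34 °C. Each TEVp single-site mutant (parent TEVp 0) is paired with a single-site variant of the 7-mer TEVs (canonical ENLYFQ|S). The substrate sits between flexible linkers in a Bxb1-sfGFP-TEVs-SsrA fusion, so cleavage stabilises Bxb1 and speeds flipping of a recombination array, read by NGS. The value is the raw area under the fraction-flipped curve over 0-4 h after rhamnose induction (AUC4h), with ≥20 reads per time point. It is not background-subtracted; inactive controls average about 0.047.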
# 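Also: Bxb1 expression induced with 0.2% (w/v) L-rhamnose at OD600 near 0.5, cultures sampled hourly, flipped fraction per protease–substrate barcode pair counted by paired-end Illumina sequencing.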
Variant,area with substrate ENLAFQS,area with substrate ENLCFQS,area with substrate ENLDFQS,area with substrate ENLEFQS,area with substrate ENLFFQS,area with substrate ENLGFQS,area with substrate ENLKFQS,area with substrate ENLLFQS,area with substrate ENLMFQS,area with substrate ENLNFQS,area with substrate ENLPFQS,area with substrate ENLRFQS,area with substrate ENLSFQS,area with substrate ENLWFQS,area with substrate ENLHFQS,area with substrate ENLIFQS,area with substrate ENLTFQS,area with substrate ENLVFQS,area with substrate ENLQFQS
V210D,0.056,0.0593,0.0612,0.0686,0.0732,0.0693,0.07,0.0415,0.047,0.0656,0.0692,0.0768,0.0472,0.0453,–,–,–,–,–
V210K,0.0547,0.067,0.065,0.0544,0.0662,0.0819,0.101,–,–,0.0474,0.0479,0.0669,0.0874,–,0.0633,0.0499,0.0645,0.0563,–
G213Y,0.0556,0.0654,0.0755,–,0.062,0.0839,0.0613,0.0526,–,0.0616,0.0651,0.0628,0.0482,–,0.0607,–,–,–,–
G213K,0.059,0.0503,0.0717,0.0623,0.062,–,0.063,0.0594,–,0.0614,0.0702,0.0666,–,0.0721,0.061,–,–,0.0621,0.056
G213A,0.0422,–,0.0694,0.0596,0.0559,–,0.0616,0.0674,0.0648,0.0681,0.0672,0.0582,0.0546,–,0.0563,–,–,–,0.0488
P225T,0.0756,0.0631,0.0617,0.0666,0.0651,–,0.0764,0.0676,0.101,0.0635,–,0.079,–,–,0.0651,0.0914,–,0.0965,0.0711
P225R,0.0457,0.0627,0.0642,0.0934,0.114,0.0623,0.0655,0.0613,0.0724,0.0658,0.0652,0.0679,0.0607,0.0808,0.0719,0.0787,0.105,–,0.0755
S171G,0.0599,–,0.0599,–,0.0647,0.0496,0.0567,–,–,–,–,–,–,–,–,–,–,0.0739,–
K216L,0.0476,0.0519,0.0666,–,–,0.04,0.0701,0.0659,0.0836,0.0826,–,–,–,–,0.0621,–,–,–,0.059
M188T,0.0753,–,0.0719,0.0706,–,–,0.082,0.0676,–,0.0648,–,–,0.0555,–,0.0698,–,0.0626,–,0.0768
S182W,0.0506,0.0733,0.0626,0.0662,–,0.0746,–,–,0.0642,–,–,–,0.0711,0.0606,–,0.051,0.0574,–,0.0546
F180I,0.0664,0.046,0.0588,0.0602,0.0448,0.0981,–,0.0571,–,0.0556,0.044,–,0.0664,–,0.0114,0.0611,–,0.0668,0.0576
T192Y,0.0601,–,–,–,–,–,0.0741,–,–,–,0.046,0.0685,0.0685,–,0.0535,–,–,–,–
T192P,0.0588,–,0.0605,0.0716,0.0717,0.0805,0.0766,–,0.078,0.0647,0.0537,0.0499,0.0567,–,0.0656,–,–,0.054,0.0813
P222G,0.0676,–,0.0739,0.0653,0.0647,–,0.0745,0.0806,0.06,0.0679,0.063,0.107,0.0822,–,–,0.0761,–,0.0696,0.0436
S209C,0.0707,–,0.0674,0.0662,0.11,0.0635,0.0877,–,0.086,0.0642,–,0.0932,–,0.0882,0.0714,–,0.0724,–,0.073
E189D,0.0625,0.0648,0.0695,–,0.0814,–,0.0786,0.0596,0.0773,0.065,0.0514,–,0.0633,–,0.0719,0.0874,–,–,–
E189I,0.0639,–,0.0639,0.0653,–,–,0.0814,–,–,–,0.0335,–,0.0618,–,0.0839,–,–,0.0981,–
L191T,0.0742,–,0.0552,0.0547,0.0798,0.0598,0.0646,0.0677,0.0498,0.0472,0.0468,–,0.0739,–,0.0537,–,–,–,0.058
R204N,0.0522,0.0718,0.0662,–,0.0838,–,0.0838,0.0807,0.0788,0.0622,–,0.0746,–,0.0685,0.0676,0.0853,–,0.0826,0.071
A196N,0.0772,0.0874,0.0662,–,0.126,0.0639,0.0818,0.065,0.0567,0.0495,0.0495,0.075,0.0548,–,0.0611,–,–,–,–
K221N,0.063,0.0558,0.0621,0.062,0.0814,–,0.0824,–,–,0.0557,0.0626,0.0772,0.0551,–,0.0649,–,–,0.0706,0.0607
K221Y,0.0699,0.0672,0.0507,–,0.0769,0.0704,0.0903,–,0.0507,0.0538,0.063,0.069,0.0666,0.0502,0.0764,–,0.0553,0.0849,0.0698
V217N,0.0866,0.055,0.0484,0.077,0.0745,0.0681,0.0529,0.041,0.0648,0.0695,0.0724,0.0794,–,0.0568,0.061,–,0.0811,0.0922,–
V217H,0.0682,0.0672,0.0625,–,–,–,0.065,0.0213,–,0.064,0.0578,–,0.0474,–,0.0542,0.0579,0.0445,–,–
V200E,0.0585,–,0.0667,–,0.0578,–,–,–,–,0.0972,–,–,–,0.0664,–,–,0.0234,–,–
E231G,0.0475,0.0704,0.0786,0.0547,0.095,0.0657,0.0754,0.0836,0.073,0.0651,–,0.0702,0.0584,0.074,0.0705,0.0869,–,–,0.127
Q194S,0.0515,–,0.0681,–,0.0898,–,0.0844,0.0812,–,0.0819,0.0705,–,0.0658,0.0957,–,0.092,–,–,0.0768
